# Experimental data as given in PMC6919601, “Identification of Plasmodium dipeptidyl aminopeptidase allosteric inhibitors by high throughput screening” (PLoS ONE, 2019).
# In all, about 110,000 compounds went through this assay and about 230 (0.21%) showed an effect of 50% or more. Some of the results follow.
# Target: DPAP1 (Plasmodium falciparum, UniProt Q8IIJ9)
# Assay: primary screen, percent inhibition; read by cleavage of a fluorogenic dipeptide substrate; higher = more effect of the substance
# Set-up: species or system P. falciparum D10 trophozoite lysates; single well
# 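Note: 30 min substrate incubation versus DMSO and 10 µM JCP410 controls.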
# Sequence of DPAP1 (Q8IIJ9 whole entry, looked up): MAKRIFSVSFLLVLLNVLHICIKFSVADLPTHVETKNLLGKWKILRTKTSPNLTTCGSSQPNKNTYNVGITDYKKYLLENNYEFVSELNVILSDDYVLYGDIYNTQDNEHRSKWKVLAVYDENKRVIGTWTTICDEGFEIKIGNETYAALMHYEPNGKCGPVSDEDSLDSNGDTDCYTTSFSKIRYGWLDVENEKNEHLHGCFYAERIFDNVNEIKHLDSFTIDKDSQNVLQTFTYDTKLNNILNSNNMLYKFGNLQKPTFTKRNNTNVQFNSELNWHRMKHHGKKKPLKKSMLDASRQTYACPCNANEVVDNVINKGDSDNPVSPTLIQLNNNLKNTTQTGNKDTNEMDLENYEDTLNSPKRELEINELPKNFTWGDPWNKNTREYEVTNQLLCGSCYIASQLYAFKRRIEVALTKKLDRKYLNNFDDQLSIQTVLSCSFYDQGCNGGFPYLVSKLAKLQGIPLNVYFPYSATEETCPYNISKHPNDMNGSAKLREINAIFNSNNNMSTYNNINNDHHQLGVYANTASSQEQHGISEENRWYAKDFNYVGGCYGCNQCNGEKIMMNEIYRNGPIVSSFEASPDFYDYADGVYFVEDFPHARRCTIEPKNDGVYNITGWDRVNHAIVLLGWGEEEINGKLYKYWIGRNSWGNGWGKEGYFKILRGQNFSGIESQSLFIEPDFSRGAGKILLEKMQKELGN
row,Compound,% Inhibition @ 10 uM
1,CCOc1ccc(-c2cc(C(=O)O)c3ccccc3n2)c(OCC)c1,-8.36%
2,N#Cc1nc(-c2ccccc2)oc1N1CCOCC1,0.317%
3,N#CC1=C(N)Oc2[nH]nc(-c3ccccn3)c2C1c1c(F)cccc1Cl (stereo not drawn),4%
4,Cc1ccccc1Cc1c(C)nc2nc(SCC(=O)NC3CCCC3)nn2c1C,-3.78%
5,CC1CCCN(CCCNC(=O)c2ccc(CS(=O)(=O)c3c(Cl)cccc3Cl)o2)C1 (stereo not drawn),-2.85%
6,CCOC(=O)c1[nH]c(C)c(C(=O)N(CC)C2CCCCC2)c1C,0.0579%
7,N#Cc1cc2c(nc1SCC(N)=O)CCCCC2,10%
8,CCN(CC)C(=O)C1CCCN(Cc2cc(OC)c3c(c2)OCO3)C1 (stereo not drawn),-4.95%
9,COc1ccc(C(=O)NCc2ccc(C(=O)O)o2)cc1,-2.19%
10,NS(=O)(=O)c1ccc(CNC(=O)c2ccccc2Cl)cc1,-3.03%
11,c1ccc(CNc2nn3nnnc3c3ccccc23)cc1,-2.12%
12,C1=C(c2ccccc2)Nc2ncnn2C1c1cccc2ccccc12 (stereo not drawn),-3.95%
13,CCOC(=O)N1CCN(c2nc3ccc(Cl)cc3nc2-n2nc(C)cc2C)CC1,0.958%
14,O=C1OC(c2ccccc2)=N/C1=C\c1ccc(OCc2ccccc2)cc1,-3.98%
15,Cn1c(/C(C#N)=C/c2c[nH]c3ccccc23)nc2ccccc21,2.26%
16,N#CC1=C(SCc2ccccc2)NC(=O)CC1c1ccc(Cl)cc1 (stereo not drawn),-6.18%
17,CCC(=O)Nc1nc(-c2ccc(Cl)cc2)nc(C)c1C(C)=O,1.62%
18,O=C(C1=C(O)C(=O)N(Cc2cccnc2)C1c1ccccc1F)c1ccc(F)cc1 (stereo not drawn),-5.46%
19,CCCc1nc2cc3sc(CCC)nc3cc2s1,0.628%
20,Cc1ccc(CNC(=O)CCCn2c(=O)c3sccc3n(Cc3ccc(Cl)cc3)c2=O)cc1,-1.84%
21,COc1ccc(-c2cc3nc(C)c(CCC(=O)N4CCc5ccccc5C4)c(C)n3n2)c(OC)c1,-2.25%
22,CC(C)C[C@@H](C(=O)NCC#N)N(C)C(=O)OCc1cccc(OC(F)(F)F)c1,0.174%
23,COc1ccc(CN2CCN(Cc3cccnc3)CC2)cc1,-8.59%
24,CC12CC(c3ccccc3O1)C(C(=O)N1CCOCC1)C(=O)N2 (stereo not drawn),1.83%
25,Cc1c(C(=O)NCCNC2CCCCC2)c(-c2ccccc2)nn1-c1ccccc1,-2.77%
26,Cc1cc(C)nc(/N=C(\N)Nc2ccc(C)c(Cl)c2)n1,-5.79%

row,Compound,% Inhibition @ 10 uM
1,COc1ccc(Cn2ccc3nc4ccn(Cc5ccc(OC)cc5)c(=O)c4cc3c2=O)cc1,2.39%
2,COc1ccc(N2CCN(C3CC(=O)N(c4ccccc4Cl)C3=O)CC2)cc1 (stereo not drawn),0.755%
3,O=C(c1cc2ccccc2oc1=O)N1CCOCC1,1.8%
4,CCN(CC)C(=O)c1nnc(O)c2ccccc12,1.04%
5,Cc1ccc(/C=C2\CCc3ccccc3C2=O)o1,9.56%
6,Cc1ccc(C)c(N(CC(=O)N2CCc3ccccc3C2)S(C)(=O)=O)c1,4.56%
7,CCOC(=O)C(/C=N/c1sc2c(c1C(=O)OC)CCCC2)=C(\O)OCC,7.61%
8,Cc1ccc2cnn(CC(=O)NCc3ccccc3F)c2c1,2.25%
9,O=C(Nc1nccs1)C(Sc1ccccc1)c1ccccc1 (stereo not drawn),-0.872%
10,COc1ccc(OCCOc2ccc(/C=C3\C(=N)N4C(C)=CSC4=NC3=O)cc2Cl)cc1,-7.09%
11,CCCNC(=O)c1ccc2snnc2c1,-1.74%
12,CCOc1cc(/C=C2/SC(=O)N(C(C)C)C2=O)cc(Br)c1OC,1.28%
13,COc1ccc(-c2ccc(OC)c(OC)c2OC)c(OC)c1OC,2.32%
14,O=C1CCC(=O)N1c1ccc(Sc2ccc([N+](=O)[O-])cc2)cc1,-6.09%
15,CCCCOc1ccc(/C=C2\Oc3ccc(C(=O)OC)cc3C2=O)cc1OC,0.291%
16,CC12C=CC(O1)C1C(=O)N(c3ccccc3C#N)C(=O)C12 (stereo not drawn),2.67%
17,CC(C)(C)CC(=O)Nc1sc2c(c1C#N)CCC2,-0.968%
18,Cc1ccc(SCC(=O)Nc2ccccc2N2CCOCC2)cc1,-6.43%
19,COc1ccc(C(=O)Nc2nnc(C(C)C)s2)c(OC)c1,3.54%
20,CCc1ccccc1NC(=O)C1CC(C)=C(C)CC1C(=O)O (stereo not drawn),2.3%
21,COc1ccc(OC)c(NC(=O)c2ccccc2Br)c1,1.38%
22,Cc1cccc(N2CCN(S(=O)(=O)c3ccc(F)cc3)CC2)c1C,3.53%
23,COc1ccc(-c2csc(-c3cc4cc(Br)cc(Br)c4oc3=O)n2)cc1,-2.42%
24,CC(C)c1ccc(OCC(=O)N2CCCC2)c(Br)c1,3.01%
25,CC(C)CC(C(=O)NCC#N)c1cnc(-c2ccc(Br)cc2)s1 (stereo not drawn),-1.41%
